Laboratory results taken from the RNAGym collection of RNA variant scans (doi:10.1101/gad.245936.114).
This sample is rich in variants without activity.

B1: tRNA (parent)
chain: CUCUCGGUAGCCAAGUUGGUUUAAGGCGCAAGACUUUAAUUUAUCACUACGAAAUCUUGAGAUCGGGCGUUCGACUCGCCCCCGGGAGAUUUUUUCCUCGAGCAA

Variants of: B1
Experiment: nonsense suppression (GFP-seq) (ratio to wild type); higher = more function; SUP4oc tRNA, yeast GFP reporter sort-seq
In short: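 Yeast were grown in raffinose/galactose medium with 80 mg/L adenine, each strain bearing a genome-integrated ochre-suppressor tRNA variant from a ~3% random-mutation library, a galactose-driven GFP ochre reporter, and RFP. After sorting into GFP/RFP bins, every bin was sequenced on an Illumina platform at phred ≥30. The GFPSEQ value, a measure of nonsense suppression, is the weighted bin median GFP/RFP relative to the unmutated parent tRNA, using each variant's estimated cell share per bin as the weight. Only variants with ≥100 reads and ≥30 cells were included.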

| Variant | nonsense suppression |
| --- | --- |
| G66A C81A | ≤ 0.026 |
| G66A G67A G86C | ≤ 0.026 |
| G66A G67C | ≤ 0.026 |
| G66A G67C G78A C81G | ≤ 0.026 |
| G66A G67U A87C | ≤ 0.026 |
| G66A G69C U76G | ≤ 0.026 |
| G66A G73A G86U | ≤ 0.026 |
| G66A G73U A74G G86U | ≤ 0.026 |
| G66A G84U | ≤ 0.026 |
| G66A G86C G88A | ≤ 0.026 |
| G66A U70A | ≤ 0.026 |
| G66A U76A C77A | ≤ 0.026 |
| G66A U76C | ≤ 0.026 |
| G66A U76C G88A | ≤ 0.026 |
| G66C | ≤ 0.026 |
| G66C A74C | ≤ 0.026 |
| G66C C68U A74C | ≤ 0.026 |
| G66C C75G | ≤ 0.026 |
| G66C C82A | ≤ 0.026 |
| G66C G67A C80G | ≤ 0.026 |
| G66C G84C A87C | ≤ 0.026 |

| Variant | nonsense suppression |
| --- | --- |
| G66C G85A | ≤ 0.026 |
| G66C G85U | ≤ 0.026 |
| G66C G86U | ≤ 0.026 |
| G66C G88U | ≤ 0.026 |
| G66C U76A | ≤ 0.026 |
| G66C U76C | ≤ 0.026 |
| G66U | ≤ 0.026 |
| G66U A89C | ≤ 0.026 |
| G66U C68A G86A | ≤ 0.026 |
| G66U C68G | ≤ 0.026 |
| G66U C68G A74U | ≤ 0.026 |
| G66U C68U | ≤ 0.026 |
| G66U C72A A89G | ≤ 0.026 |
| G66U C72G | ≤ 0.026 |
| G66U C77G C79A | ≤ 0.026 |
| G66U C79A | ≤ 0.026 |
| G66U C81G G86U | ≤ 0.026 |
| G66U G69C | ≤ 0.026 |
| G66U G73U | ≤ 0.026 |
| G66U G84U | ≤ 0.026 |
| G66U G88C | ≤ 0.026 |

| Variant | nonsense suppression |
| --- | --- |
| G66U G88U | ≤ 0.026 |
| G67A C72G | ≤ 0.026 |
| G67A C72U | ≤ 0.026 |
| G67A C77A | ≤ 0.026 |
| G67A C77U | ≤ 0.026 |
| G67A C80U | 0.0261 |
| G67A C83G | ≤ 0.026 |
| G67A C83U | ≤ 0.026 |
| G67A G69A U70A G73U | ≤ 0.026 |
| G67A G78U | 0.0411 |
| G67A G84U | 0.0504 |
| G67A G85U | 0.0862 |
| G67A G86U | ≤ 0.026 |
| G67A U70A | ≤ 0.026 |
| G67A U70C | ≤ 0.026 |
| G67A U70G A87U | ≤ 0.026 |
| G67A U71G | ≤ 0.026 |
| G67A U76G G78A | ≤ 0.026 |
| G67C C77G | ≤ 0.026 |
| G67C C83A | ≤ 0.026 |
| G67C C83U | ≤ 0.026 |

| Variant | nonsense suppression |
| --- | --- |
| G67C G69A | ≤ 0.026 |
| G67C G69A G78A | ≤ 0.026 |
| G67C G73C | ≤ 0.026 |
| G67C G84U | ≤ 0.026 |
| G67C G85U | ≤ 0.026 |
| G67C G88U | ≤ 0.026 |
| G67C U70G | ≤ 0.026 |
| G67C U71C C79A | ≤ 0.026 |
| G67C U71G | ≤ 0.026 |
| G67U A74C | ≤ 0.026 |
| G67U A74U | ≤ 0.026 |
| G67U A87C | ≤ 0.026 |
| G67U A89C | ≤ 0.026 |
| G67U A89G | ≤ 0.026 |
| G67U C72G | ≤ 0.026 |
| G67U C77U G84A G88C | ≤ 0.026 |
| G67U C79G | 0.768 |
| G67U C82G | ≤ 0.026 |
| G67U G69A A74G | ≤ 0.026 |
| C68A C72G | ≤ 0.026 |
| C68A C75A | 0.0286 |
